# Reference: the supplement of paper PMC8728848
# Some of the results follow.
# B1: SSL (Salmo salar) (protein)
# chain: TGAKGAEEGVVPAETRNQCPTGWFQFGSRCFMFVETARSWPLAERHCVSLGANLASVHSSADDQFLQAIAGCKTGAFSTTWIGGFDAVQDRLWFWSDGSEFDYQNWAKGEPNNSGGREPCIVINWGDEYRWNDIKCGNSFPSVCSKRICEIQKN
# Tests used:
# Assay in all cases: glycan array binding signal (z-score within array); higher = stronger binding
# Conditions in all cases: glycan notation: IUPAC condensed, linker removed
# [1] = target: Neu5Ac(a2-3)Gal(b1-3)GalNAc6S
# Outline: (§1)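 The binding signal is a Z-score computed within each array and averaged over linkers. Arrays of the same protein sequence at different concentrations or buffers were also averaged together. Data originate from 3228 arrays in the Consortium for Functional Glycomics database, kept only where the protein sequence was available.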
# [2] = target: Neu5Ac(a2-3)Gal(b1-3)GlcNAc
# Outline: as §1
# [3] = target: Neu5Ac(a2-3)Gal(b1-3)GlcNAc(b1-2)Man(a1-3)[Neu5Ac(a2-3)Gal(b1-3)GlcNAc(b1-2)Man(a1-6)]Man(b1-4)GlcNAc(b1-4)GlcNAc
# Outline: as §1
# [4] = target: Neu5Ac(a2-3)Gal(b1-3)GlcNAc(b1-3)Gal(b1-3)GlcNAc
# Outline: as §1
# [5] = target: Neu5Ac(a2-3)Gal(b1-3)GlcNAc(b1-3)Gal(b1-4)GlcNAc
# Outline: as §1
# [6] = target: Neu5Ac(a2-3)Gal(b1-3)GlcNAc(b1-3)GalNAc
# Outline: as §1
# [7] = target: Neu5Ac(a2-3)Gal(b1-3)GlcNAc6S
# Outline: as §1
# [8] = target: Neu5Ac(a2-3)Gal(b1-3)[Fuc(a1-4)]GlcNAc
# Outline: as §1
# [9] = target: Neu5Ac(a2-3)Gal(b1-3)[Fuc(a1-4)]GlcNAc(b1-3)Gal(b1-3)[Fuc(a1-4)]GlcNAc
# Outline: as §1
# [10] = target: Neu5Ac(a2-3)Gal(b1-3)[Fuc(a1-4)]GlcNAc(b1-3)Gal(b1-4)[Fuc(a1-3)]GlcNAc
# Outline: as §1
# [11] = target: Neu5Ac(a2-3)Gal(b1-3)[Neu5Ac(a2-3)Gal(b1-4)]GlcNAc
# Outline: as §1
# [12] = target: Neu5Ac(a2-3)Gal(b1-3)[Neu5Ac(a2-6)]GalNAc
# Outline: as §1
# Neu5Ac(a2-3)Gal(b1-4)Glc = target: Neu5Ac(a2-3)Gal(b1-4)Glc
# Outline: as §1
# [13] = target: Neu5Ac(a2-3)Gal(b1-4)GlcNAc
# Outline: as §1
# [14] = target: Neu5Ac(a2-3)Gal(b1-4)GlcNAc(b1-2)Man(a1-3)[GlcNAc(b1-2)Man(b1-4)GlcNAc(b1-2)Man(a1-6)]Man(b1-4)GlcNAc(b1-4)GlcNAc
# Outline: as §1
# [15] = target: Neu5Ac(a2-3)Gal(b1-4)GlcNAc(b1-2)Man(a1-3)[Neu5Ac(a2-6)Gal(b1-4)GlcNAc(b1-2)Man(a1-6)]Man(b1-4)GlcNAc(b1-4)GlcNAc
# Outline: as §1
# [16] = target: Neu5Ac(a2-3)Gal(b1-4)GlcNAc(b1-3)Gal(b1-3)GlcNAc
# Outline: as §1
# [17] = target: Neu5Ac(a2-3)Gal(b1-4)GlcNAc(b1-3)Gal(b1-4)GlcNAc
# Outline: as §1
# [18] = target: Neu5Ac(a2-3)Gal(b1-4)GlcNAc(b1-3)Gal(b1-4)GlcNAc(b1-3)Gal(b1-4)GlcNAc
# Outline: as §1
# [19] = target: Neu5Ac(a2-3)Gal(b1-4)GlcNAc(b1-3)Gal(b1-4)[Fuc(a1-3)]GlcNAc
# Outline: as §1
# [20] = target: Neu5Ac(a2-3)Gal(b1-4)GlcNAc(b1-3)GalNAc
# Outline: as §1
# [21] = target: Neu5Ac(a2-3)Gal(b1-4)GlcNAc(b1-6)[Gal(b1-3)]GalNAc
# Outline: as §1
# [22] = target: Neu5Ac(a2-3)Gal(b1-4)GlcNAc(b1-6)[Neu5Ac(a2-3)Gal(b1-3)]GalNAc
# Outline: as §1
# [23] = target: Neu5Ac(a2-3)Gal(b1-4)GlcNAc6S
# Outline: as §1
# [24] = target: Neu5Ac(a2-3)Gal(b1-4)[Fuc(a1-3)]GlcNAc
# Outline: as §1
# [25] = target: Neu5Ac(a2-3)Gal(b1-4)[Fuc(a1-3)]GlcNAc(b1-3)Gal
# Outline: as §1
# [26] = target: Neu5Ac(a2-3)Gal(b1-4)[Fuc(a1-3)]GlcNAc(b1-3)Gal(b1-4)GlcNAc
# Outline: as §1
# [27] = target: Neu5Ac(a2-3)Gal(b1-4)[Fuc(a1-3)]GlcNAc(b1-3)Gal(b1-4)[Fuc(a1-3)]GlcNAc(b1-3)Gal(b1-4)[Fuc(a1-3)]GlcNAc
# Outline: as §1
binder,measurement,setting,value
B1,glycan array binding signal (z-score),[1],-0.18
same,glycan array binding signal (z-score),[2],-0.173
same,glycan array binding signal (z-score),[3],-0.185
same,glycan array binding signal (z-score),[4],-0.157
same,glycan array binding signal (z-score),[5],-0.184
same,glycan array binding signal (z-score),[6],-0.171
same,glycan array binding signal (z-score),[7],-0.167
same,glycan array binding signal (z-score),[8],-0.181
same,glycan array binding signal (z-score),[9],-0.086
same,glycan array binding signal (z-score),[10],-0.154
same,glycan array binding signal (z-score),[11],-0.188
same,glycan array binding signal (z-score),[12],-0.153
same,glycan array binding signal (z-score),Neu5Ac(a2-3)Gal(b1-4)Glc,-0.169
same,glycan array binding signal (z-score),[13],-0.177
same,glycan array binding signal (z-score),[14],-0.182
same,glycan array binding signal (z-score),[15],-0.175
same,glycan array binding signal (z-score),[16],-0.185
same,glycan array binding signal (z-score),[17],-0.187
same,glycan array binding signal (z-score),[18],-0.184
same,glycan array binding signal (z-score),[19],-0.179
same,glycan array binding signal (z-score),[20],-0.168
same,glycan array binding signal (z-score),[21],-0.183
same,glycan array binding signal (z-score),[22],-0.17
same,glycan array binding signal (z-score),[23],-0.181
same,glycan array binding signal (z-score),[24],-0.177
same,glycan array binding signal (z-score),[25],-0.182
same,glycan array binding signal (z-score),[26],-0.153
same,glycan array binding signal (z-score),[27],-0.126
